# Measured values from paper PMC4336329 (PLoS ONE, 2015).
# The whole screen tested about 310,000 compounds, of which about 2,200 (0.71%) showed an effect of 50% or more. Effects have a minus sign here. This is one part of the list.
# Molecular target: human ether-à-go-go-related gene (hERG) potassium channel (human, UniProt Q12809)
# Assay: primary screen, population patch clamp on CHO cells stably expressing hERG
# Chain of human ether-à-go-go-related gene (hERG) potassium channel (Q12809 whole entry, looked up): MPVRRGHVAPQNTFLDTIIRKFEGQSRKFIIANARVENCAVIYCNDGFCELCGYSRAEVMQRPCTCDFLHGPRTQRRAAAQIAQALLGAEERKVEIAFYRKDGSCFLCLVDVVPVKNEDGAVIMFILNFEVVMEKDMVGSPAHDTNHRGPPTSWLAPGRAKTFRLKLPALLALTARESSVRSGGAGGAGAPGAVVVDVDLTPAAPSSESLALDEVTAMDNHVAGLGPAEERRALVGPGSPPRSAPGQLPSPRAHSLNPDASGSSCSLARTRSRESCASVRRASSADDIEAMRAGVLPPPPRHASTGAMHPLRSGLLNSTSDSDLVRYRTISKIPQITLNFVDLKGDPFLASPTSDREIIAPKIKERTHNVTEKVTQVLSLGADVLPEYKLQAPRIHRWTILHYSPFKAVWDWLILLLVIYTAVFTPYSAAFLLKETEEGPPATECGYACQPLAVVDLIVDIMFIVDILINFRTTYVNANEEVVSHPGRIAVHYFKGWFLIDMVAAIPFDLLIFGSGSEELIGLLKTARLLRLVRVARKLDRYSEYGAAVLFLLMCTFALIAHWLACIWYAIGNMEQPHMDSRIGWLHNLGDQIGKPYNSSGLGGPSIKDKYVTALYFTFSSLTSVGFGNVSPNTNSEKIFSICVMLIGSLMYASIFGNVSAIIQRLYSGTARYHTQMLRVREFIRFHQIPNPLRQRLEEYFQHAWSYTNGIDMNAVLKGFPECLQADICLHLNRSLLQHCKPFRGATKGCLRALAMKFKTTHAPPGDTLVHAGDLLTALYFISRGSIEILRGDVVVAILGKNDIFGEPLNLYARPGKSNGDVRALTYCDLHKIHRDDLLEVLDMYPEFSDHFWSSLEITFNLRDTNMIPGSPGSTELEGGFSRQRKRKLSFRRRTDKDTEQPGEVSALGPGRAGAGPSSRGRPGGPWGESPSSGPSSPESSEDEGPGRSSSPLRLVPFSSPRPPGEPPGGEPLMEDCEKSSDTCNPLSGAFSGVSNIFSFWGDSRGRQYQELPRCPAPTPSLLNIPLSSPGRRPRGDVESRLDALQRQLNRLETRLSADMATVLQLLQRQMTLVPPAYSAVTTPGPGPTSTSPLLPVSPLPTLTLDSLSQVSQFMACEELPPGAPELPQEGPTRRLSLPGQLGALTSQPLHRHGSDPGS
row,Structure (SMILES),"hERG current change (%, negative = inhibition) at 1uM"
1,Cc1ccc2c(c1)C1CN(C)CCC1N2C(=O)COc1ccccc1F (stereo not shown),7.87%
2,Cc1cc(Nc2ccccc2)nn1C(=O)c1ccccc1,8.68%
3,COc1ccc(Cl)cc1NC(=O)c1nnn(CC(=O)Nc2ccc(OC)c(OC)c2)c1N,10.5%
4,O=C(O)CSc1nc2ccccc2[nH]1,13.8%
5,CC(=O)Nc1ccc(C2=CC(=O)C[C@H](c3ccc4c(c3)OCO4)C2)cc1,12.3%
6,Cc1cccc(NC(=O)c2nc[nH]c2C(=O)NCC(=O)OC(C)(C)C)c1,12.9%
7,NS(=O)(=O)c1cc2c(cc1Cl)NC(C(Cl)Cl)NS2(=O)=O (stereo not shown),13.4%
8,CC(=O)Nc1c(O)nc(SCC(=O)N2CCCCC2)[nH]c1=O,11%
9,CN(CC(=O)Nc1ccc(Cl)cc1)C(=O)CNC(=O)c1ccc2ccccc2c1,12.8%
10,COc1ccc(-n2ncc3c2CC(C)(C)CC3NC(=O)CSc2ccccn2)cc1 (stereo not shown),-14.1%
11,Cc1c(C)n(Cc2ccccc2)c2ncnc(NCCN(C)C)c12,9.1%
12,O=C(C1CCC(CNS(=O)(=O)c2ccccc2)CC1)N1CCOCC1 (stereo not shown),14.2%
13,COc1ccc(C(=O)NCCNC(=O)c2cc(OCC(F)(F)F)ccc2OCC(F)(F)F)cc1,7.54%
14,CCCN(CCC)CCNC(=O)c1cc2c(=O)n(C)c3ccccc3c2n1C,-12.9%
15,CCOC(=O)Cc1csc(NS(=O)(=O)c2ccc(Cl)cc2)n1,0.926%
16,O=C(/C(=C/c1cccnc1)n1ccnc1)c1ccc(Cl)cc1Cl,6.78%
17,C/C(=N\Nc1c(Cl)c(Cl)nc(C(=O)O)c1Cl)c1ccc(O)cc1,14.1%
18,CC1CCCCN1C(=O)c1cc(F)c(F)cc1Cl (stereo not shown),11.4%
19,O=C(Nc1ccc(Cl)c(S(=O)(=O)N2CCOCC2)c1)c1ccc2c(c1)OCCO2,10.3%
20,O=C(CNC(=O)c1ccc(Cl)cc1)c1ccc(Cl)cc1,11.4%
21,O=C(O)CCc1ccc(-c2ccc(F)cc2)n1NC(=O)c1ccco1,9.01%
22,Cc1c(C(=O)NC(=S)NCc2cccnc2)cccc1[N+](=O)[O-],16.9%
23,Cc1nnc(SCC(=O)Nc2nsc(-c3ccccc3)n2)s1,9.47%
24,COc1cc(OC)c(OC)cc1CNc1nnnn1C,-3.98%
25,Cc1ccc(NC(=O)c2cccc(OC(F)F)c2)c(OC(F)F)c1,4.36%
